Results taken from the CheMixHub ionic liquid set.
Further values from the same series stand in other lists.

Test: xn = mol fraction of the nth substance listed

CCCCCCCCCCCCCCCC[n+]1ccccc1.[Cl-] + C[C@H](N)C(=O)O + O
308.15 K, 101 kPa
Settings	electrical conductivity [S/m]
x2 = 0.0003926, x1 = 8.536e-05	0.00602
x2 = 0.0003926, x1 = 9.294e-05	0.00624
x2 = 0.0003926, x1 = 0.0001002	0.00645
x2 = 0.0003926, x1 = 0.0001072	0.0067
x2 = 0.0003926, x1 = 0.0001139	0.00687
x2 = 0.0003926, x1 = 0.0001204	0.00693
x2 = 0.0009271, x1 = 1.754e-05	0.00309
x2 = 0.0009271, x1 = 1.971e-05	0.0033
x2 = 0.0009271, x1 = 2.17e-05	0.00338
x2 = 0.0009271, x1 = 2.387e-05	0.00355
x2 = 0.0009271, x1 = 2.586e-05	0.0037
x2 = 0.0009271, x1 = 2.984e-05	0.00391
x2 = 0.0009271, x1 = 3.382e-05	0.00405
x2 = 0.0009271, x1 = 3.78e-05	0.00424
x2 = 0.0009271, x1 = 4.16e-05	0.00439
x2 = 0.0009271, x1 = 4.521e-05	0.00452
x2 = 0.0009271, x1 = 4.901e-05	0.00458
x2 = 0.0009271, x1 = 5.082e-05	0.00472
x2 = 0.0009271, x1 = 5.968e-05	0.00501
x2 = 0.0009271, x1 = 6.8e-05	0.00535
x2 = 0.0009271, x1 = 7.614e-05	0.00552
x2 = 0.0009271, x1 = 8.391e-05	0.00576
x2 = 0.0009271, x1 = 9.133e-05	0.00595
x2 = 0.0009271, x1 = 9.856e-05	0.00626
x2 = 0.0009271, x1 = 0.0001054	0.00643
x2 = 0.0009271, x1 = 0.0001121	0.00655
x2 = 0.0009271, x1 = 0.0001185	0.00667
x2 = 0.0009272, x1 = 1.09e-06	0.000415
x2 = 0.0009272, x1 = 2.35e-06	0.000686
x2 = 0.0009272, x1 = 3.44e-06	0.000935
x2 = 0.0009272, x1 = 4.52e-06	0.00115
x2 = 0.0009272, x1 = 5.61e-06	0.00138
x2 = 0.0009272, x1 = 6.69e-06	0.00157
x2 = 0.0009272, x1 = 7.78e-06	0.00174
x2 = 0.0009272, x1 = 9.04e-06	0.001945
x2 = 0.0009272, x1 = 1.013e-05	0.00209
x2 = 0.0009272, x1 = 1.121e-05	0.00233
x2 = 0.0009272, x1 = 1.23e-05	0.00244
x2 = 0.0009272, x1 = 1.338e-05	0.00264
x2 = 0.0009272, x1 = 1.447e-05	0.00282
x2 = 0.0009272, x1 = 1.537e-05	0.00292
x2 = 0.001838, x1 = 1.09e-06	0.000537
x2 = 0.001838, x1 = 2.36e-06	0.000825
x2 = 0.001838, x1 = 3.45e-06	0.001043
x2 = 0.001838, x1 = 4.54e-06	0.001301
x2 = 0.001838, x1 = 5.81e-06	0.001447
x2 = 0.001838, x1 = 6.9e-06	0.00176
x2 = 0.001838, x1 = 7.99e-06	0.001944
x2 = 0.001838, x1 = 9.08e-06	0.00205
x2 = 0.001838, x1 = 1.016e-05	0.00219
x2 = 0.001838, x1 = 1.125e-05	0.00241
x2 = 0.001838, x1 = 1.252e-05	0.00269
x2 = 0.001838, x1 = 1.361e-05	0.00279
x2 = 0.001838, x1 = 1.47e-05	0.0029
x2 = 0.001838, x1 = 1.579e-05	0.00308
x2 = 0.001838, x1 = 1.797e-05	0.00324
x2 = 0.001838, x1 = 1.997e-05	0.00329
x2 = 0.001838, x1 = 2.214e-05	0.0035
x2 = 0.001838, x1 = 2.432e-05	0.0036
x2 = 0.001838, x1 = 2.632e-05	0.00368
x2 = 0.001838, x1 = 3.049e-05	0.00382
x2 = 0.001838, x1 = 3.449e-05	0.00396
x2 = 0.001838, x1 = 3.848e-05	0.00417
x2 = 0.001838, x1 = 4.229e-05	0.00451
x2 = 0.001838, x1 = 4.61e-05	0.00469
x2 = 0.001838, x1 = 4.991e-05	0.0048
x2 = 0.001838, x1 = 5.173e-05	0.0049
x2 = 0.001838, x1 = 6.062e-05	0.00522
x2 = 0.001838, x1 = 6.933e-05	0.00531
x2 = 0.001838, x1 = 7.75e-05	0.00573
x2 = 0.001838, x1 = 8.548e-05	0.00582
x2 = 0.001838, x1 = 9.292e-05	0.00605
x2 = 0.001838, x1 = 0.0001004	0.00625
x2 = 0.001838, x1 = 0.0001073	0.0064
x2 = 0.001838, x1 = 0.000114	0.00659
x2 = 0.001838, x1 = 0.0001205	0.00677

CCCCCCCC[n+]1ccccc1.[Br-] + C[C@H](N)C(=O)O + O
100 kPa
Settings	electrical conductivity [S/m]
288.15 K, x2 = 0.001788, x1 = 0.005928	1.2
288.15 K, x2 = 0.001788, x1 = 0.006261	1.23
288.15 K, x2 = 0.001789, x1 = 0.005332	1.14
288.15 K, x2 = 0.001789, x1 = 0.005641	1.17
288.15 K, x2 = 0.00179, x1 = 0.004641	1.07
288.15 K, x2 = 0.00179, x1 = 0.005005	1.11
288.15 K, x2 = 0.001791, x1 = 0.004243	1.01
288.15 K, x2 = 0.001792, x1 = 0.003806	0.943
288.15 K, x2 = 0.001793, x1 = 0.003323	0.857
293.15 K, x2 = 0.001788, x1 = 0.005921	1.36
293.15 K, x2 = 0.001788, x1 = 0.006256	1.4
293.15 K, x2 = 0.001789, x1 = 0.005325	1.29
293.15 K, x2 = 0.001789, x1 = 0.005634	1.33
293.15 K, x2 = 0.00179, x1 = 0.004635	1.21
293.15 K, x2 = 0.00179, x1 = 0.005	1.25
293.15 K, x2 = 0.001791, x1 = 0.004239	1.14
293.15 K, x2 = 0.001792, x1 = 0.003802	1.07
293.15 K, x2 = 0.001793, x1 = 0.003319	0.967
298.15 K, x2 = 0.001788, x1 = 0.005914	1.53
298.15 K, x2 = 0.001788, x1 = 0.006249	1.58
298.15 K, x2 = 0.001789, x1 = 0.00532	1.46
298.15 K, x2 = 0.001789, x1 = 0.005628	1.5
298.15 K, x2 = 0.00179, x1 = 0.00463	1.35
298.15 K, x2 = 0.00179, x1 = 0.004993	1.41
298.15 K, x2 = 0.001791, x1 = 0.004234	1.28
298.15 K, x2 = 0.001792, x1 = 0.003797	1.2
298.15 K, x2 = 0.001793, x1 = 0.003315	1.09
303.15 K, x2 = 0.001788, x1 = 0.005908	1.72
303.15 K, x2 = 0.001788, x1 = 0.006242	1.76
303.15 K, x2 = 0.001789, x1 = 0.005314	1.63
303.15 K, x2 = 0.001789, x1 = 0.005623	1.68
303.15 K, x2 = 0.00179, x1 = 0.004626	1.51
303.15 K, x2 = 0.00179, x1 = 0.004989	1.57
303.15 K, x2 = 0.001791, x1 = 0.00423	1.43
303.15 K, x2 = 0.001792, x1 = 0.003795	1.33
303.15 K, x2 = 0.001793, x1 = 0.003314	1.21
308.15 K, x2 = 0.001788, x1 = 0.005896	1.95
308.15 K, x2 = 0.001788, x1 = 0.006229	2.02
308.15 K, x2 = 0.001789, x1 = 0.005304	1.81
308.15 K, x2 = 0.001789, x1 = 0.005611	1.88
308.15 K, x2 = 0.00179, x1 = 0.004615	1.67
308.15 K, x2 = 0.00179, x1 = 0.004978	1.75
308.15 K, x2 = 0.001791, x1 = 0.004221	1.58
308.15 K, x2 = 0.001792, x1 = 0.003786	1.47
308.15 K, x2 = 0.001793, x1 = 0.003306	1.32
